# Assay results published in paper PMC4336329 (PLoS ONE, 2015).
# The whole screen tested about 310,000 compounds, of which about 14,000 (4.5%) showed an effect of 50% or more. The effect is printed as a negative number. Some of the results follow.
# Target: human ether-à-go-go-related gene (hERG) potassium channel (human, UniProt Q12809)
# Assay: primary screen, population patch clamp on CHO cells stably expressing hERG
# 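Further: peak tail current of the secondary pulse compared with the same well before compound.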
# Sequence of human ether-à-go-go-related gene (hERG) potassium channel (Q12809 whole entry, looked up): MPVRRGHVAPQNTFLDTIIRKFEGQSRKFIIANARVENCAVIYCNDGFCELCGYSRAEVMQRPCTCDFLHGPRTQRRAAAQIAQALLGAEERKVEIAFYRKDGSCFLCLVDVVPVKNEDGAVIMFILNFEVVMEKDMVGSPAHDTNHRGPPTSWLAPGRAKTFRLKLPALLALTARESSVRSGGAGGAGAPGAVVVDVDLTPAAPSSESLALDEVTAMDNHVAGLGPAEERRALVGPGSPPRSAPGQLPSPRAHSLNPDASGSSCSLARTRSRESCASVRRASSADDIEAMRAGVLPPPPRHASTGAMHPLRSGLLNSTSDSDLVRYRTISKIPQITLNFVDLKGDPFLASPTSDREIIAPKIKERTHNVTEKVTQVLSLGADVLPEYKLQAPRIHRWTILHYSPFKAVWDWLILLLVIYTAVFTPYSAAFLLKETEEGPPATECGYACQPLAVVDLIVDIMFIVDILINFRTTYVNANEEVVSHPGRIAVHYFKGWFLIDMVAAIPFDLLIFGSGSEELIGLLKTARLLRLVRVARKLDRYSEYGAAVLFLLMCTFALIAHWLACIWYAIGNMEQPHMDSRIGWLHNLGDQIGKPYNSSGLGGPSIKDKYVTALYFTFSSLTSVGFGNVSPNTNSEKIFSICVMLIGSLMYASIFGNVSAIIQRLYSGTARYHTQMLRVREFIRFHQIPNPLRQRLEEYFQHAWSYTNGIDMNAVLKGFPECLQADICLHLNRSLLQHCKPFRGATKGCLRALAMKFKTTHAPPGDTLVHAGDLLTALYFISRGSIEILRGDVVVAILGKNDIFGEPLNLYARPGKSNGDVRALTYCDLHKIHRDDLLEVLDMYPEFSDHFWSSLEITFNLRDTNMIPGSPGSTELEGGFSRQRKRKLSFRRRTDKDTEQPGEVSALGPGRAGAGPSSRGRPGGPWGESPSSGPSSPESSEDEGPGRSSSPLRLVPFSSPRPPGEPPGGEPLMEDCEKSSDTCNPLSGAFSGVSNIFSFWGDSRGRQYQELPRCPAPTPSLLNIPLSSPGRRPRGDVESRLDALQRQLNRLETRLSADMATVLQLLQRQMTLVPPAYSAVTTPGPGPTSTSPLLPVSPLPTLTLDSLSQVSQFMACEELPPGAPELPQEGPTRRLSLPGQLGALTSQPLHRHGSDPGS
row,SMILES,"hERG current change (%, negative = inhibition) at 10uM [%]"
1,O=C(CCC(=O)N(CC(=O)NC1CCCC1)c1ccc(F)cc1)Nc1nccs1,4.37
2,CN(C)CCCN(C(=O)c1ccc(S(=O)(=O)N2CCCCCC2)cc1)c1nc2cc3c(cc2s1)OCCO3.Cl,-59.7
3,COc1ccccc1NCCC#N,12.9
4,COc1ccc(N2C(=O)CCC(C(=O)O)C2c2ccc(F)cc2)cc1 (centres unmarked),24.6
5,CCOC(=O)c1c(C)nn(-c2ccc(NC(=O)c3cccs3)cc2)c1C,16.8
6,COc1cc(/C=N/NC(=O)CCn2cnc(-c3ccccc3)c2-c2ccccc2)ccc1O,-28.2
7,N#Cc1ccc(CN2CCN(CC(=O)Nc3ccccc3C(=O)NC3CC3)CC2)cc1,-77.9
8,O=C(CCCN1C(=O)c2ccccc2C1=O)OC1CSCC1NC(=O)c1ccccc1 (centres unmarked),-11.3
9,CCn1c(=O)c(C(=O)CN2CCN(S(=O)(=O)c3ccccc3)CC2)c(N)n(Cc2ccccc2)c1=O,-14.6
10,CCCc1cc(=O)[nH]c(SCC(=O)NCc2ccc3c(c2)OCO3)n1,-37.9
11,Cc1onc(-c2c(Cl)cccc2Cl)c1NC(=O)NNc1ccccc1,-4.33
12,Cc1ccsc1/C=N/NC(=O)Cc1cccn1C,6.25
13,CCNc1nc(ON=C(C)C)nc(N(C)C)n1,18.1
14,COc1ccccc1-c1nc2c3ccccc3nc(=S)n2[nH]1,32.7
15,COc1cccc(/C=N/NC(=O)CNC(=O)COc2cccc(C)c2)c1O,6.02
16,CCOC(=O)C1=C(COC(=O)/C=C/c2ccc([N+](=O)[O-])cc2)NC(=O)NC1C (centres unmarked),-44.7
17,Cc1cc(C)c2c(c1)/C(=N/NC(=S)Nc1ccc(F)cc1)CCC2,6.9
18,NC(=O)C1CC(=O)N(c2ccc(OCC(=O)Nc3ccc(F)cc3)cc2)C1 (centres unmarked),15.6
19,COc1ccc(OC)c(S(=O)(=O)N2CCC(C(=O)NC3CCCCCC3)CC2)c1,9.73

row,SMILES,"hERG current change (%, negative = inhibition) at 10uM [%]"
1,C/C(=N\NC(=O)Cn1nc(C)c([N+](=O)[O-])c1C)c1ccco1,26
2,COc1cc(NC(=O)c2cccs2)c(OC)cc1NC(=O)Cc1ccccc1,5.6
3,CCCN1C(=O)c2cc(C(=O)NC3CCCCCC3)ccc2C1O (centres unmarked),6.77
4,CC1CN(CC(=O)c2c(N)n(Cc3ccccc3)c(=O)n(C)c2=O)CC(C)O1 (centres unmarked),-3.47
5,CC(=O)Oc1ccc(-c2cccc(C(=O)NCCCO)c2)cc1,-7.79
6,Cc1ccc(S(=O)(=O)/N=C(/c2ccc(F)cc2)N2CCCCC2)cc1,-11.1
7,CC(C)CC(=O)Nc1c2c(nn1-c1ccc(F)cc1)CS(=O)C2 (centres unmarked),25.8
8,CCC(=O)c1ccc(N2CCN(C(=O)c3cccc(F)c3)CC2)c(F)c1,-41.6
9,CC1(C)C(c2ccccc2)=NC(c2ccc(F)cc2)N1O (centres unmarked),-8.06
10,CCOc1ccc(CCNC(=O)COC(=O)c2c(C)nn(-c3ccccc3)c2C)cc1OCC,-12.6
11,CN(C)S(=O)(=O)Oc1ccsc1C(=O)Nc1ccc(Cl)cc1,-33.7
12,COc1ccc(CCCC(=O)Nc2cc(C)ccc2OC)cc1,-14.2
13,CC(=O)c1ccc(NC(=O)CN2CCOCC2)cc1.Cl,17
14,N/C(=N\OC(=O)c1ccc(Cl)cc1Cl)c1ccc(Cl)cc1,7.62
15,CN1CCN(c2ccc(CNS(=O)(=O)c3ccc(F)cc3Cl)cc2)CC1,-12.7
16,O=C(NCc1ccccc1)c1ccc(NC(=O)c2ccccc2F)cc1,12.3
17,CCOC(=O)c1c(CN2CCCCC2)oc2ccc(O)cc12.Cl,-54.3
18,Cc1nc2c(-c3ccc(F)cc3)c(C)nn2c(C)c1CCC(=O)N1CCN(c2ccccn2)CC1,-69.5
19,O=C(O)CN1C(=O)c2cccc(Oc3ccc(Cl)cc3)c2C1=O,16

row,SMILES,"hERG current change (%, negative = inhibition) at 10uM [%]"
1,N#Cc1ccc2[nH]cc(CCO)c2c1,24.4
2,Cc1cc(N)n(-c2ncnc3scc(-c4ccccc4)c23)n1,-12.2
3,O=S(=O)(NCC1CCCO1)c1cnc(Cl)c(Br)c1 (centres unmarked),1.2
4,O=C1CCCC2=C1C(c1cccs1)CC(=O)N2c1ccc(F)cc1 (centres unmarked),-2.06
5,COC(=O)c1ccc(CNC(=O)CSC2=NCCS2)cc1,7.07
6,Cc1cc(OCC(=O)OCC(=O)NC2CCCCC2C)ccc1Cl (centres unmarked),0.466
7,O=C(c1ccccc1)c1ccccc1,1.26
8,COc1ccccc1C(=O)N1CCN(Cc2nc(CC3CC3)no2)CC1,9.93
9,Cc1ccc(NC2CCCN(C(=O)CN3C(=O)c4ccccc4C3=O)C2)cc1C (centres unmarked),11.5
10,Cc1sc2ncn(CC(=O)N3CCC(C(N)=O)CC3)c(=O)c2c1S(=O)(=O)N1CC(C)CC(C)C1 (centres unmarked),26.4
11,COc1cc(OC)cc(C(=O)NCCCNC(=O)c2cccnc2)c1,7.43
12,COc1ccccc1C(CNC(=O)CNC(=O)c1ccc(Cl)c(Cl)c1)N1CCCC1 (centres unmarked),-32.9
13,N#CC1=C(N)Oc2cc(Nc3ccccc3)ccc2C1c1ccncc1 (centres unmarked),-15.5
14,COc1ccc(S(=O)(=O)N2CCCC2c2cccs2)cc1 (centres unmarked),-0.306
15,O=C(COC(=O)c1ccc([N+](=O)[O-])s1)Nc1ccc(Cl)cn1,-0.616
16,CCOC(=O)c1sc(NC(=O)CSc2nc(C)cc(C)c2C#N)c(C#N)c1C,8.19
17,COc1ccc(S(=O)(=O)Nc2ccc(F)cc2F)cc1C(=O)N1CCOCC1,8.33
18,COc1ccc(S(=O)(=O)Nc2ccccn2)cc1C(=O)Nc1ccccc1,-2.18
